Among the data in PMC6212790 are binding signal values, retold here.

The other results are listed elsewhere or left out. At the low end of the ranking, values are background and their order means little.

The target in the assay is T1, GST-Rok (full length) (UniProt O34857).
T1 sequence: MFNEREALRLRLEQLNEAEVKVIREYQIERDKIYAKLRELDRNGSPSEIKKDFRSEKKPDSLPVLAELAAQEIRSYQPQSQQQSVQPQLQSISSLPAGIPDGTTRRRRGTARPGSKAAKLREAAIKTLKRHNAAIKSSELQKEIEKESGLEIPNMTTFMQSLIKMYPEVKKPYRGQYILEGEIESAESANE
Description: protein binding microarray.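 Note: rank score from −0.5 (least bound) to 0.5 (best bound).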 Particulars: Rok is a gene silencer of Bacillus subtilis; high values mean tight binding; most listed sequences are background and not binding sites; double strand, one strand shown.
With GTTCCCCA, the binding signal is -0.264 E-score.
The figure for CCGTGGTA is 0.0728 E-score.
With CGCATACG, the binding signal was -0.00965 E-score.
As for GCCAGATA, the figure is -0.191 E-score.
As for TAAAGATA, the figure is 0.246 E-score; as for ACGGTTGA, 0.0819 E-score; as for CCACGCAA, -0.0448 E-score.
The figure for ATCCTAAC is 0.0663 E-score.
ATTCGGCA returned a binding signal of -0.0204 E-score.
As for AGACAGAA, the figure is 0.0386 E-score; as for CTACCAAC, 0.164 E-score.
The figure for CACTACTC is 0.00906 E-score; for TACATCTA it is 0.382 E-score.
In turn, TAAGCGAA registered a binding signal of -0.0856 E-score.
The figure for ATTTCGGG is -0.222 E-score; for ACAAAATC it is -0.0365 E-score.
The figure for CAGACATC is -0.168 E-score; for CAGTTTCG it is 0.0836 E-score.
As for GACAGTTA, the figure is 0.161 E-score; as for CAACAGCA, -0.115 E-score.
ACTACGAG returned a binding signal of 0.145 E-score.
As for CGTATACC, the figure is -0.0224 E-score; as for GGGAACAC, -0.26 E-score; as for CATGTCCG, 0.0148 E-score.
The figure for ATTGCTAG is 0.236 E-score; for ATCCTTTC it is -0.0311 E-score; for AACATTAC it is 0.214 E-score.
The figure for AAATTTGA is 0.115 E-score; for AGTGACAC it is 0.0501 E-score; for CTCTATAC it is 0.033 E-score.
For ATGGCCTC, the binding signal is -0.248 E-score.
ACGTCGAA had a binding signal of 0.111 E-score.
The figure for AACTTTCC is -0.0562 E-score; for GAACGGAC it is -0.365 E-score; for TCGCCTCA it is -0.0967 E-score.
As for ACTAACTA, the figure is 0.348 E-score; as for AGTATTTC, 0.332 E-score.
As for CTCCTAAC, the figure is -0.0628 E-score.
With AAATATTA, the binding signal was found to be 0.305 E-score.
CCTACAGG came in with a binding signal of -0.24 E-score.
As to GATCCGAC, the binding signal is -0.175 E-score.
The figure for GAGGCGAC is -0.133 E-score; for ACCTCACA it is 0.0258 E-score; for GACGACGC it is 0.0038 E-score.
As for CACCTGTA, the figure is 0.101 E-score; as for CTGATAAC, 0.0762 E-score; as for GCTCAAAC, -0.11 E-score.
In turn, CCGTCGAG returned a binding signal of -0.0127 E-score.
The figure for TAACCCTA is 0.00689 E-score.
As for AACTCCTC, the figure is -0.121 E-score; as for ATCCATCC, 0.0458 E-score; as for AGCTCACG, -0.193 E-score.
The sequence CTAACAAC registered a binding signal of -0.119 E-score.
The figure for CATATTTC is 0.287 E-score; for ACGGGTGA it is -0.113 E-score.
The figure for CAATAAGA is 0.0955 E-score.
The figure for CAAGCTTC is -0.192 E-score; for CGTGTTCA it is 0.0479 E-score.
The sequence AGGAACTG showed a binding signal of -0.0117 E-score.
The figure for AGTCGGTG is -0.0768 E-score; for AGGTTAAA it is 0.0464 E-score.
As for CTCATTGC, the figure is -0.218 E-score; as for AACTGACA, 0.116 E-score.
Sequence GGCATGGA had a binding signal of -0.224 E-score.
As for GTAGGGGA, the figure is -0.238 E-score; as for CAAGAGAG, -0.00957 E-score.
The figure for CGTTACTA is 0.34 E-score; for GCTTTGTA it is 0.135 E-score.
The figure for AAGCCAAC is -0.0856 E-score.
In turn, CATGACTA showed a binding signal of 0.253 E-score.
As to ATCTTTGA, the binding signal worked out at 0.224 E-score.
For the sequence AAGCATCT, the binding signal was -0.0696 E-score.
As for ACAAGAGA, the figure is 0.000275 E-score.
The figure for ATGGGAGG is -0.252 E-score.
As for CTAACCCC, the figure is -0.32 E-score; as for GCGAGACA, -0.175 E-score; as for AGAGAACT, 0.126 E-score.
TACCTGGA yielded a binding signal of 0.082 E-score.
The figure for ATCTAGGG is 0.0815 E-score; for CTCCTATA it is 0.171 E-score.
As for AGTTCTTG, the figure is -0.017 E-score.
The figure for ATGCGATC is -0.042 E-score; for AGTGAAAC it is -0.00421 E-score; for GTATTTGA it is 0.0869 E-score.
CCATTAAC came in with a binding signal of -0.108 E-score.
ACCGGCTA had a binding signal of -0.0445 E-score.
As for CGAAGCTA, the figure is 0.0592 E-score.
As for TATATATA, the figure is 0.477 E-score; as for TGTTGTAA, 0.142 E-score; as for TCAAGCGA, -0.318 E-score.
Sequence CGTGGTCA showed a binding signal of -0.0319 E-score.
The figure for ACCCAGTC is -0.0752 E-score; for ACCAATTC it is 0.207 E-score.
In turn, TAACGCTA showed a binding signal of 0.126 E-score.
As for ACCAACGG, the figure is -0.0314 E-score.
The figure for AAGAGAAG is 0.0393 E-score; for CATCGAGC it is 0.0473 E-score.
As for AGGCAGCC, the figure is -0.279 E-score; as for ACAAGCCT, -0.083 E-score.
Regarding CCCCACCC, the binding signal was -0.407 E-score.
The figure for ACATTTTA is 0.24 E-score; for AATTAAGT it is 0.273 E-score.
As for AGTCTCTA, the figure is 0.0503 E-score; as for GTCGCGGA, -0.0939 E-score.
Consider ATGGTAAA, for which the binding signal amounted to 0.296 E-score.
Consider AGTTGCCC, for which the binding signal was -0.0525 E-score.
As for CCAATGGA, the figure is -0.0187 E-score; as for GCATTCGA, 0.114 E-score.
The figure for CCTAGAGG is -0.202 E-score.
The sequence AACATCAC yielded a binding signal of -0.0378 E-score.
